Assay results reported in the supplement of paper PMC10037445.
Whole data set: some 2,900 compounds, median “NF-kB SEAP reporter activity, fold change vs agonist alone” near 0.99, cut for the highest 2% near 2.6. The list shows a part of the results.

Experiments:
RAW-Dual [1] = test: NF-kB SEAP reporter activity, fold change vs agonist alone; higher = enhanced NF-kB activity
How it was run: (§1)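 Reporter activity is given as fold change relative to agonist-alone wells. To measure it, 50 nL of library stock was pin-tooled onto RAW-Dual macrophages (50,000 cells/well, DMEM, 384-well plates), a PRR agonist followed 1 h later, and cells stayed at 37 °C, 5% CO2. Twenty hours on, supernatant was assayed for IRF (QuantiLuc luminescence) and NF-κB (QuantiBlue, 620 nm absorbance), and wells under 70% of agonist-control IncuCyte confluency in both mask sets were marked cytotoxic.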

RAW-Dual [2] = test: NF-kB SEAP reporter activity, fold change vs agonist alone; cytotoxicity flag (confluency mask): cytotoxic (confluency <70% of control); higher = enhanced NF-kB activity
How it was run: as §1

RAW-Dual [3] = test: NF-kB SEAP reporter activity, fold change vs agonist alone; cytotoxicity flag (confluency mask): not cytotoxic; higher = enhanced NF-kB activity
How it was run: as §1

[4] = agonist: ODN 1826 (TLR9) 0.5 ug/mL
[5] = agonist: Pam2CSK4 (TLR2/6) 0.1 ug/mL
[6] = agonist: Pam3CSK4 (TLR2/1) 0.1 ug/mL
[7] = library stock concentration (final ~1000-fold dilution): 10 mM, cytotoxicity flag (confluency mask): not cytotoxic, agonist: Imiquimod (TLR7) […]
[8] = library stock concentration (final ~1000-fold dilution): 10 mM, cytotoxicity flag (confluency mask): not cytotoxic, agonist: MPLA (TLR4) […]

CCCCCOc1ccc(-c2ccc(-c3ccc(C(=O)NC4CC(O)C(O)NC(=O)C5C(O)C(C)CN5C(=O)C(C(C)O)NC(=O)C(C(O)C(O)c5ccc(O)cc5)NC(=O)C5CC(O)CN5C(=O)C(C(C)O)NC4=O)cc3)cc2)cc1 (stereo not drawn)
NF-kB SEAP reporter activity (RAW-Dual [1]; library stock concentration (final ~1000-fold dilution): 10 mM, cytotoxicity flag (confluency mask): cytotoxic (confluency <70% of control), agonist: Imiquimod (TLR7) […]): 1.67 | NF-kB SEAP reporter activity (RAW-Dual [1]; library stock concentration (final ~1000-fold dilution): 10 mM, cytotoxicity flag (confluency mask): cytotoxic (confluency <70% of control), agonist: MPLA (TLR4) […]): 2.43

CCCCCOc1ccc(-c2ccc(-c3ccc(C(=O)NC4CC(O)C(O)NC(=O)C5C(O)C(C)CN5C(=O)C(C(C)O)NC(=O)C(C(O)C(O)c5ccc(O)cc5)NC(=O)C5CC(O)CN5C(=O)C(C(C)O)NC4=O)cc3)cc2)cc1 (stereo not drawn) (library stock concentration (final ~1000-fold dilution): 10 mM)
NF-kB SEAP reporter activity (RAW-Dual [2]; agonist: LPS (TLR4) 0.1 ug/mL): 3.72 | NF-kB SEAP reporter activity (RAW-Dual [2]; [4]): 0.545 | NF-kB SEAP reporter activity (RAW-Dual [2]; [5]): 1.28 | NF-kB SEAP reporter activity (RAW-Dual [2]; [6]): 1.42

COc1ccc(-c2coc3cc(O[C@@H]4O[C@H](CO)[C@@H](O)[C@H](O)[C@H]4O)ccc3c2=O)cc1O (library stock concentration (final ~1000-fold dilution): 10 mM)
NF-kB SEAP reporter activity (RAW-Dual [3]; agonist: LPS (TLR4) 0.1 ug/mL): 1.76 | NF-kB SEAP reporter activity (RAW-Dual [3]; [4]): 1.27 | NF-kB SEAP reporter activity (RAW-Dual [3]; [5]): 1.26 | NF-kB SEAP reporter activity (RAW-Dual [3]; [6]): 2.04

COc1ccc(-c2coc3cc(O[C@@H]4O[C@H](CO)[C@@H](O)[C@H](O)[C@H]4O)ccc3c2=O)cc1O
NF-kB SEAP reporter activity (RAW-Dual [1]; [7]): 1.52 | NF-kB SEAP reporter activity (RAW-Dual [1]; [8]): 1.6

CNC(=O)c1ccc2cc(C3(O)CCn4cncc43)ccc2c1 (stereo not drawn) (library stock concentration (final ~1000-fold dilution): 10 mM)
NF-kB SEAP reporter activity (RAW-Dual [3]; agonist: LPS (TLR4) 0.1 ug/mL): 1.22 | NF-kB SEAP reporter activity (RAW-Dual [3]; [4]): 1.01 | NF-kB SEAP reporter activity (RAW-Dual [3]; [5]): 1.02 | NF-kB SEAP reporter activity (RAW-Dual [3]; [6]): 1.15

CNC(=O)c1ccc2cc(C3(O)CCn4cncc43)ccc2c1 (stereo not drawn)
NF-kB SEAP reporter activity (RAW-Dual [1]; [7]): 0.916 | NF-kB SEAP reporter activity (RAW-Dual [1]; [8]): 1.07

Cc1nc2ccc(NC(=O)Nc3ccnc4cccnc34)cc2o1 (library stock concentration (final ~1000-fold dilution): 10 mM)
NF-kB SEAP reporter activity (RAW-Dual [3]; agonist: LPS (TLR4) 0.1 ug/mL): 1.66 | NF-kB SEAP reporter activity (RAW-Dual [3]; [4]): 1.06 | NF-kB SEAP reporter activity (RAW-Dual [3]; [5]): 1.23 | NF-kB SEAP reporter activity (RAW-Dual [3]; [6]): 0.988

Cc1nc2ccc(NC(=O)Nc3ccnc4cccnc34)cc2o1
NF-kB SEAP reporter activity (RAW-Dual [1]; [7]): 1.06 | NF-kB SEAP reporter activity (RAW-Dual [1]; [8]): 1.06

Oc1nc(-c2ccc(C(F)(F)F)cc2)nc2c1CSCC2
NF-kB SEAP reporter activity (RAW-Dual [1]; [7]): 1.15 | NF-kB SEAP reporter activity (RAW-Dual [1]; [8]): 1.07

Oc1nc(-c2ccc(C(F)(F)F)cc2)nc2c1CSCC2 (library stock concentration (final ~1000-fold dilution): 10 mM)
NF-kB SEAP reporter activity (RAW-Dual [3]; agonist: LPS (TLR4) 0.1 ug/mL): 1.14 | NF-kB SEAP reporter activity (RAW-Dual [3]; [4]): 1.09 | NF-kB SEAP reporter activity (RAW-Dual [3]; [5]): 1.25 | NF-kB SEAP reporter activity (RAW-Dual [3]; [6]): 1.92

NC(=O)N1c2ccccc2CC(=O)c2ccccc21 (library stock concentration (final ~1000-fold dilution): 10 mM)
NF-kB SEAP reporter activity (RAW-Dual [3]; agonist: LPS (TLR4) 0.1 ug/mL): 1.08 | NF-kB SEAP reporter activity (RAW-Dual [3]; [4]): 0.937 | NF-kB SEAP reporter activity (RAW-Dual [3]; [5]): 0.981 | NF-kB SEAP reporter activity (RAW-Dual [3]; [6]): 0.93

NC(=O)N1c2ccccc2CC(=O)c2ccccc21
NF-kB SEAP reporter activity (RAW-Dual [1]; [7]): 0.767 | NF-kB SEAP reporter activity (RAW-Dual [1]; [8]): 0.876

Cc1cccn2c(=O)c(-c3nnn[nH]3)cnc12
NF-kB SEAP reporter activity (RAW-Dual [1]; library stock concentration (final ~1000-fold dilution): 10 mM water, cytotoxicity flag (confluency mask): not cytotoxic, agonist: Imiquimod (TLR7) […]): 0.935 | NF-kB SEAP reporter activity (RAW-Dual [1]; library stock concentration (final ~1000-fold dilution): 10 mM water, cytotoxicity flag (confluency mask): not cytotoxic, agonist: MPLA (TLR4) […]): 1.02
